Data taken from PubChem BioAssay AID686978 (National Center for Advancing Translational Sciences (NCATS), 2013).
Out of some 420,000 compounds screened, about 64,000 (15%) were called active. This list was built around the results that the source calls inconclusive (neither active nor inactive); the mix of calls is not that of the screen. Calls follow the shape of the dose curve; as a rule, active = well fitted inhibition curve with a large enough effect; inconclusive = small, poorly fitted or top-dose-only effect; inactive = flat fitted curve, though single readings scatter. Potencies of inconclusive entries are left out as doubtful fits.

assay: qHTS for Inhibitors of human tyrosyl-DNA phosphodiesterase 1 (TDP1): qHTS in cells in absence of CPT; conditions: DT40 Tdp1-/- hTDP1 cells, no CPT, ATP luminescence, 48 h; activity change, negative = growth inhibition: at 46.2 µM (top of the series) unless noted; also: nearly all actives have a fitted effect of over 55% in size
Procedure, shortened: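 Chicken DT40 Tdp1-/- cells stably complemented with human TDP1 were seeded at 400 cells/well with DMSO in place of 20 nM camptothecin. After compound pinning, cells grew at least 48 hr at 37 °C; viability read by CellTiter-Glo luminescence.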
% is scaled to controls: 0 for no effect and ±100 for the full control effect; potency is read from the fitted curve at half-maximal effect; tags tell the direction and shape of the fitted curve.

| Compound | activity change, negative = growth inhibition | Potency |
| --- | --- | --- |
| CCCC(=O)c1c[nH]c(C(=O)NCc2cccnc2)c1 | inactive: 16.9% | – |
| COc1cccc(OC)c1C(=O)Nc1cccc2c1CCCC2 | inactive: 4.95% | – |
| COc1ccc(Cl)cc1NC(=O)NCc1ccccn1 | inactive: 5.93% | – |
| CC(NC(=O)CCn1c(=S)[nH]c2ccsc2c1=O)c1ccccc1 (centres undefined) | inactive: -0.28% | – |
| Cc1ccc(/C=N/NC(=O)c2cc3ccccc3cc2O)o1 | – | inconclusive [inhibitor, single point] |
| CC(=O)OCCN(CCCn1c(-c2ccncc2)nc2ccccc21)c1nc(-c2ccc(C)cc2)cs1 | inactive: -19.6% | – |
| COc1ccc([N+](=O)[O-])cc1NC(=O)Cn1ccc(C(F)(F)F)n1 | inactive: -4.36% | – |
| COC(=O)c1ccc(-n2c(CCC(=O)O)ccc2-c2ccccc2)cc1 | inactive: -5.13% | – |
| O=C(CSc1nc2c([nH]c3ccccc32)c(=O)n1-c1cccc(C(F)(F)F)c1)N1CCc2ccccc21 | – | active: 8.2 µM |
| Cc1ccc(NC(=O)C2CC(=O)N(Cc3ccccc3)C2)cc1S(=O)(=O)N1CCCCCC1 (centres undefined) | – | inconclusive [inhibitor, single point] |
| CCCCS(=O)CC(COc1ccc(Cl)cc1)OC(=O)c1ccccc1 (centres undefined) | – | inconclusive [inhibitor, single point] |
| CCOC(=O)c1cc2sccc2n1CC(=O)N1c2ccccc2CC1C (centres undefined) | – | active: 20.6 µM |
| CCOC(=O)N1CCN(S(=O)(=O)c2cn(C)c(=O)n(C)c2=O)CC1 | inactive: -0.0146% | – |
| CCc1sc(C(=O)Nc2ccccc2N2CCOCC2)cc1C | – | inconclusive [inhibitor, single point] |
| Cc1ccccc1NC(=O)OCc1cccnc1Sc1ccc(Cl)cc1 | – | inconclusive [inhibitor, single point] |
| COc1ccc(NC(=O)c2cc(C3CCCCN3C(=O)OCc3ccccc3)on2)c(C)c1 (centres undefined) | – | inconclusive [inhibitor, single point] |
| C/C(=N\NC(=O)c1ccc(Cl)cc1)c1ccccn1 | – | active: 0.517 µM |
| O=S(Cc1ccc(Cl)cc1)c1ccccc1 (centres undefined) | inactive: -18.3% | – |
| O=C(COC(=O)CNC(=O)c1ccccc1)NC1CCCC1 | inactive: -1.01% | – |
| COc1ccc(Cn2c(C(C)C)nc3sc4ccccc4c(=O)c3c2=O)cc1 | – | active: 11.6 µM |
| CC(C)(C)C(=O)NNC(=O)C1CC1(c1ccccc1)c1ccccc1 (centres undefined) | inactive: -6.09% | – |
| O=C(/C=C/c1cccc([N+](=O)[O-])c1)NCCSCc1c(Cl)cccc1Cl | – | inconclusive [inhibitor, single point] |
| Cc1cccc(NC(=O)C2CCN(S(=O)(=O)c3cccc4cccnc34)CC2)c1 | – | inconclusive [inhibitor, single point] |
| COc1ccc(CCN2C(=O)CC(Cc3ccc(C)cc3)C2=O)cc1OC (centres undefined) | – | inconclusive [inhibitor, single point] |
| CCOC(=O)[C@]12CCC=C1N(Cc1cccc3ccccc13)C(=O)[C@H](CC(=O)N1CCCC1)C2 | – | active: 23.1 µM |

| Compound | activity change, negative = growth inhibition | Potency |
| --- | --- | --- |
| NNC(=O)CC12CC3CC(C1)CC(n1ncnn1)(C3)C2 | inactive: -11% | – |
| CC1CCCCN1S(=O)(=O)c1ccc(S(=O)(=O)N2CCN(c3ccccc3)CC2)cc1 (centres undefined) | – | inconclusive [inhibitor, partial curve] |
| CCOc1ccc(NC(=O)CN(C)C(=O)CCCOc2ccc(Cl)c(C)c2)cc1OCC | – | active: 23.1 µM |
| O=C1C(Cl)=C(NCCN2CCOCC2)C(=O)c2ccccc21 | – | active: 16.4 µM |
| CCN(CC)c1ccc(C(=O)NNC(=O)CNC(=O)c2cccs2)cc1 | inactive: -7.84% | – |
| Cc1ccc(CNC(=O)CCCCCn2c(=O)c3sccc3n(CC(=O)Nc3c(C)cc(C)cc3C)c2=O)cc1 | inactive: 4.81% | – |
| CCCSc1ncc(Cl)c(C(=O)Nc2c(C(=O)Nc3ccc(OC)cc3)oc3ccccc23)n1 | – | inconclusive [inhibitor, full curve, poor fit] |
| COc1cc(Cl)c(C)cc1NC(=O)Cn1ncc2c1-c1cc(C)ccc1OC2 | – | inconclusive [inhibitor, partial curve] |
| CCOC(=O)N/N=C(\CCC(=O)O)c1cccs1 | inactive: 3.3% | – |
| Cc1cccc(CNC(=O)c2ccc3oc(=O)n(Cc4ccccc4)c3c2)c1 | – | inconclusive [inhibitor, single point] |
| CSc1nc2cc(S(=O)(=O)N3CCCCC3)ccc2s1 | – | active: 23.1 µM |
| Cc1ccc2cc(CCNC(=O)C(=O)c3c[nH]c4ccccc34)c(=O)[nH]c2c1 | – | inconclusive [inhibitor, single point] |
| O=C(Nc1cc(Cl)ccc1Cl)c1cc2nc(-c3ccc4c(c3)OCO4)cc(C(F)(F)F)n2n1 | inactive: -23.9% | – |
| C/C=C\C=C/C(=O)Nc1cccc(C2=NOC3(C2)C[C@@H](C(N)=O)N(C(=O)COc2ccc(Cl)cc2)C3)c1 (some centres undefined) | – | inconclusive [inhibitor, single point] |
| Cc1cccc(N(Cc2cc3cc(C)ccc3[nH]c2=O)C(=O)c2cccs2)c1 | – | inconclusive [inhibitor, single point] |
| CCCc1cc(C(=O)N2CCC(n3nccc3NC(=O)c3ccc(OC)cc3)CC2)no1 | inactive: 3.02% | – |
| O=C(C(c1ccccc1)N1CCOCC1)N1CCOCC1 (centres undefined) | – | inconclusive [inhibitor, partial curve] |
| Cc1ccc(NC(=O)CCc2nc3sc4c(c3c(=O)[nH]2)CCCC4)c(Br)c1 | – | inconclusive [inhibitor, partial curve] |
| CC1C(=O)NN=C1C(=O)N/N=C\C(Br)=C\c1ccccc1 (centres undefined) | – | active: 14.6 µM |
| COC(=O)C(C)N(C(=O)c1cccc2ccccc12)c1c(C)cccc1C (centres undefined) | – | active: 16.4 µM |
| COc1ccc(NC(=S)NNC(=O)c2ccco2)c(OC)c1 | inactive: 10.8% | – |
| Cc1cc(C(=O)O)ccc1-n1c(C)cc(/C=C2\SC(=O)NC2=O)c1C | inactive: -28.4% | – |
| O=C(c1ccc(Cl)c(Cl)c1)N1CCN(c2ccccn2)CC1 | inactive: -17.8% | – |
| COCCCNC(=O)CC1C[C@H](C(=O)N(C(C)C)C(C)C)[C@@]2(C)c3[nH]c4ccccc4c3CCN2C1=O (some centres undefined) | – | inconclusive [inhibitor, single point] |
| Cc1ccc(C(=O)CSc2nc3cccnc3n2C)cc1 | – | inconclusive [inhibitor, single point] |

| Compound | activity change, negative = growth inhibition | Potency |
| --- | --- | --- |
| C/C(CC(=O)NCCN1CCOCC1)=N\NC(=O)c1ccncc1 | inactive: 1.26% | – |
| Cc1ccc(N(C(=O)c2csnn2)C(C(=O)NC(C)(C)C)c2cccnc2)cc1 (centres undefined) | inactive: -7.02% | – |
| COC(=O)c1ccc(Cn2nnc3c(=O)[nH]c(C4CCN(S(=O)(=O)c5ccc(F)cc5)CC4)nc32)cc1 | – | inconclusive [inhibitor, single point] |
| Cc1cc(C)cc(NC(=O)CSc2oc(-c3ccco3)nc2S(=O)(=O)c2ccc(Cl)cc2)c1 | – | inconclusive [inhibitor, single point] |
| COC(=O)c1sc2ccccc2c1NC(=O)c1ccc(S(=O)(=O)N2CCCCC2)cc1 | – | inconclusive [inhibitor, partial curve, poor fit] |
| Cn1nc(C(=O)NCc2ccccc2Cl)c2c1-c1ccccc1S(=O)(=O)C2 | – | inconclusive [inhibitor, single point] |
| CC(O)(c1ccc(Cl)cc1)C(c1ccccc1)c1ccccn1 (centres undefined) | inactive: -0.853% | – |
| COc1ccc(Cl)cc1NC(=O)C1CCN(S(=O)(=O)c2ccc3c(c2)CC(C)N3C(C)=O)CC1 (centres undefined) | – | active: 20.6 µM |
| COc1ccc(COC(=O)C2CCN(S(=O)(=O)c3cccs3)CC2)cc1 | inactive: 7.95% | – |
| CSc1ccc(CNC(=O)C2CCN(c3nc4ccccc4nc3C(F)(F)F)CC2)cc1 | inconclusive: -26.8% [inhibitor] | – |
| Cc1ccc(NC(=S)NC2CCCC2)cc1C | – | inconclusive [inhibitor, single point] |
| CCN(CC)CCNC(=O)c1cn(CCOC)c(=O)c2c1c1ccccc1n2C | inconclusive: -33.9% [inhibitor] | – |
| N=c1c(S(=O)(=O)c2ccccc2)cc2c(=O)n3ccccc3nc2n1C1CCCC1 | – | inconclusive [inhibitor, partial curve] |
| COc1ccc(CNCc2c(C(=O)O)c(C)n(Cc3ccccc3C)c2C)c(OC)c1 | – | inconclusive [inhibitor, single point] |
| CCC(C)[C@@H](CN(N=O)[C@@H](Cc1ccccc1)CN(C)N=O)N(CCc1ccccc1)N=O (some centres undefined) | – | active: 20.6 µM |
| Cc1ccc(S(=O)(=O)NCC(=O)N(CC(=O)NCC2CCCO2)c2cccc(F)c2)cc1 (centres undefined) | inactive: -5.08% | – |
| CCCCNC(=O)C1CCN(c2nc3ccccc3nc2C(F)(F)F)CC1 | – | inconclusive [inhibitor, single point] |
| Cc1ccc(Cl)cc1N1CCN(c2ncnc3c2nc2n3CCCCC2)CC1 | – | inconclusive [inhibitor, single point] |
| COc1ccc(Nc2cc(C)c3cc(NC(=O)Cc4ccc(Cl)cc4)ccc3n2)cc1 | – | inconclusive [inhibitor, single point] |
| COc1cc2c(cc1OC)/C(=C/C(=O)c1ccc(OC)c([N+](=O)[O-])c1)NCC2 | – | active: 18.4 µM |
| CCN(CC)S(=O)(=O)c1cccc(C(=O)Nc2sc3c(c2C#N)CCC(C)C3)c1 (centres undefined) | – | inconclusive [inhibitor, single point] |
| Cc1cc(-n2c(C)cc(C(=O)CN3C(=O)NC4(CCCCCC4)C3=O)c2C)no1 | – | inconclusive [inhibitor, single point] |
| Nc1cc(OC(=O)c2c(F)cccc2Cl)nn1S(=O)(=O)c1ccccc1 | inactive: -5.39% | – |
| COc1ccc2c(c1)c1c(c(=O)n(-c3ccccc3C)c(=O)n1C)n2C | inactive: -18.3% | – |
